Out of some 150,000 compounds screened, about 540 (0.36%) showed an effect of 50% or more. The list shows a part of the results.
Tested on: Plasmodium falciparum
Assay: Primary screen in NF54 nanoGlo assay, in single point, at 2uM, 72h; a lower Z score goes with more inhibition
Assay type: functional, Erythrocyte
Details: timepoint 72 hour

Compound | % Inhibition | Z score
CC(C)[C@H](C#N)NC(=O)c1cnns1 | -7% | 0.92
Cc1c[nH]c([C@H](C)NC(=O)CCCn2cnnn2)n1 | -11% | 2.1
O=C(c1cscn1)N1CCCc2cccc(Cl)c21 | -12% | 1.51
Cc1nccc(NC(=O)c2cc(Br)cnc2C2CC2)n1 | 1% | -0.26
O=C(Nc1ccc2c(c1)OCO2)N1CCC(n2cc(C3CCCC3)nn2)CC1 | -13% | 2.62
Cc1c(C(=O)N2CC3(CCCCC3)[C@@H]2C(C)C)nnn1C | -7% | 0.97
CC[C@H](Oc1ccccc1C)c1nnc(-c2ccsc2)o1 | 6% | -0.98
c1ccc(CCC[C@H]2CN(c3cnccn3)CCO2)cc1 | -9% | 1.32
Cn1ncc2c(Oc3ccc4c(c3)CCC4)ncnc21 | 26% | -3.55
Cc1n[nH]c(C)c1CN(C)CCCCc1ccccc1 | 8% | -1.53
COc1cnc(CN(C)Cc2cc(C)cc(C)n2)cc1O | 2% | -0.23
C=CCNC(=O)c1cc(F)c(O)c(Cl)c1 | -15% | 2.22
Cc1cc(=O)[nH]c2ccc(-c3cccc(C(=O)NCCN4CCCCC4)c3)cc12 | -2% | 0.18
O=C(NC[C@H]1CCCN(Cc2cccc3nonc23)C1)c1ccccc1Cl | -8% | 1.2
N#Cc1cccc(NC(=O)COc2ccc(C(=O)c3ccc(F)cc3)cc2)c1 | -4% | 0.49
N#Cc1cnc(Nc2ccc(Cl)cc2)c(C#N)c1Nc1ccccc1 | -5% | 0.69
COc1ccccc1[C@@H](NC(=O)Cc1nnc(C)o1)c1ccco1 | -5% | 0.84
NC(=O)c1ccc(N2CCC3(CCCC3)CC2)nn1 | -1% | 0.08
CCOC1CC1NC(=O)Cc1c(C)noc1C (configuration not stated) | -3% | 0.39
COc1ccc(NC(=O)c2cn3c4c(cc(Br)cc4c2=O)CC3)c(OC)c1 | -2% | 0.26
COc1ccc(CN(C)S(=O)(=O)CC2CCCCC2)cn1 | -4% | 0.73
CC(C)n1nccc1S(=O)(=O)NCC1(Cn2ccnc2)CC1 | -4% | 0.79

Compound | % Inhibition | Z score
Cc1nn(-c2ccc3nnc(C)n3n2)c(C)c1CCC(=O)Nc1ccc(C(C)C)cc1 | -2% | 0.3
Cc1nn(C)c2nc(NCCN3CCCCC3)sc12 | 9% | -1.61
O=S(=O)(c1ccnc(N2Cc3ccc(Cl)cc3C2)c1)N1CCCC1 | -2% | 0.33
O=c1cccnn1CC1CN(c2ncc(Br)cn2)C1 | -7% | 1.02
Cc1n[nH]cc1CNC(=O)[C@H]1CC1(C)C | 5% | -0.84
CC1CC(C(=O)NCC2(CC(N)=O)CC2)CC(C)(C)C1 (configuration not stated) | -4% | 0.46
OC[C@]1(F)CCN(c2ncc(Cn3cc(Br)cn3)s2)C1 | -9% | 1.72
CCN1CC(=O)N[C@H]2CN(C(=O)CCN3CCCC3=O)CC[C@@H]2OCc2cccc(c2)Oc2cc(OC(C)C)cc(c2)C1=O | 0% | 0.07
O=C(N1CCC(Cc2cc(F)ccc2F)CC1)[C@]1(CO)CCCO1 | -3% | 0.33
O=C(Nc1ccsc1)Nc1ncccc1F | -7% | 1.36
Cc1cc(C(=O)N2CCOC[C@@H]2CC(=O)N2CCC(CO)CC2)c(C)o1 | 5% | -0.7
Cc1nc(C)c(S(=O)(=O)NCCc2ccns2)s1 | -3% | 0.55
Cc1ccc([C@@H]2CS(=O)(=O)CCN2)o1 | -5% | 0.89
O=C(N[C@@H]1CC[C@H]2CCOc3ccccc3C(=O)N3CCN(Cc4ccc(F)c(F)c4)C[C@H]3C(=O)NC[C@H]1O2)C1CCOCC1 | -14% | 1.76
O=C(Nc1snnc1C(=O)N1CCOCC1)N1CCOCC1 | -4% | 0.66
Cc1sc(CCNC(=O)c2csnn2)nc1-c1ccccc1 | -3% | 0.41
CC(C)c1cnc(NC(=O)Nc2ccn(Cc3ccncc3)n2)s1 | -11% | 1.13
COc1cccc(NC(=O)[C@@H]2Cc3[nH]cnc3C3(CCOCC3)N2)c1 | -3% | 0.54
CS(=O)(=O)NCC1(CO)CC2(CCC2)C1 | -7% | 0.73
Cc1ccc(CNC(=O)c2ccc3nn(CC(=O)Nc4ccc5c(c4)OCCO5)c(=O)n3c2)cc1 | -8% | 0.72
COCCNC(=O)CN1C(=O)[C@@H]2CCCCN2c2ccc(C(=O)N3CCCCC3)cc21 | -13% | 1.2
CC(=O)N1CCC[C@H]1C(=O)NCc1nc(C)cs1 | -19% | 2.8

Compound | % Inhibition | Z score
CN(C)C(=O)CO[C@H]1CCOC[C@H]1NC(=O)c1cccc2ccccc12 | -5% | 0.96
N#CCC[C@H](C#N)Cn1ccc(-c2cccs2)n1 | -3% | 0.37
Cc1ccc(N2CCN(CC(=O)NCCCn3ccnc3)C2=O)cc1 | 0% | 0.04
CCC(=O)N1CCc2cc(-c3ccc(C(=O)N4CCN(c5ccccn5)CC4)cc3)ccc21 | 3% | -0.5
CC(C)(O)CN1CCc2c(cccc2NCc2cncs2)C1 | -9% | 0.76
CC(C)(C)C(=O)Nc1c(F)cccc1F | -4% | 0.49
O=C(O)c1cccc2c(-c3cccs3)n[nH]c12 | -1% | 0.1
Cc1cc(C(=O)Nc2c(C)cnn2Cc2cccc(Cl)c2)cc(=O)[nH]1 | -10% | 1.84
O=C(Nc1cccs1)N1C2CCC1CC(F)C2 (configuration not stated) | -14% | 1.65
CC(=O)c1ccc(C#N)cc1N[C@@H](C)CO | -6% | 1.13
Cc1cc(C(=O)NCc2ccc(N3CCCCC3)nc2)on1 | 12% | -1.54
CS(=O)(=O)N1CCC[C@H]1c1ccc2c(c1)OCCCO2 | -14% | 1.3
CCc1nnc([C@@H]2CC(F)(F)CN2C(=O)c2cocn2)o1 | -6% | 0.95
O=C1CC(C2CCCCN2C(=O)CCc2ncc(-c3ccccc3)o2)CN1 (configuration not stated) | -13% | 2.52
CCN(Cc1ncoc1C(C)C)c1ccc(F)c(F)c1 | -9% | 0.75
COCC1(CNC(=O)Cc2ccsc2)CC1 | 3% | -0.49
O=C1OC[C@H](CO)N1CCCOc1ccc(F)cc1 | -2% | 0.34
O=c1[nH]nc(-c2nc(-c3ccc4c(c3)OCO4)no2)c2ccccc12 | -9% | 1.35
Cn1cc(C2C[S+]([O-])CCN2C(=O)Cc2cccc(CC(F)(F)F)c2)cn1 (configuration not stated) | -17% | 2.05
C[C@H]1CCc2nc3ncn(Cc4cccc(C#N)c4)c(=O)c3cc2C1 | -15% | 1.95
CCOC(=O)c1nc(-c2ccc(N3CCCCC3)nc2)no1 | 33% | -4.72
CC[C@H](C)[C@H](NC(C)=O)C(=O)N1CCOC2CCN(C)CC21 (some centres not stated) | -1% | 0.16

Compound | % Inhibition | Z score
CCn1ncnc1CNC(=O)C(C)(C)N1CCOCC1 | -5% | 0.92
Cc1ccc(C(=O)N2CCOCC2)cc1NC(=O)c1cnn(CC(F)(F)F)c1 | 0% | -0.09
Cn1nc2c(c1NC(=O)c1c[nH]c(=O)c(C(F)(F)F)c1)CCCC2 | 5% | -0.88
CCCn1cc(-c2cc(-c3cnn(C(C)C)c3)c(C#N)c(N)n2)c(C)n1 | -3% | 0.41
O=C(NCCCn1ccnc1)c1cc(N2CC[C@@H]3CCCC[C@H]3C2)ccn1 | 6% | -1.06
CCCN(Cc1nnc(-c2ccccc2)o1)S(=O)(=O)c1cnn(C(F)F)c1C | 44% | -6.35
CC1OCCC1(C)NC(=O)Nc1cc(N(C)C)ncn1 (configuration not stated) | -16% | 1.75
CC(C)[C@@H]1N(C(=O)CS(=O)(=O)C2CC2)CC12CCCCC2 | -10% | 1.05
Cc1nnc(N(C)Cc2ccc3c(c2)OCCO3)c(C#N)c1C | -15% | 2.39
O=S(=O)(c1ccc(-c2cc(C(F)(F)F)[nH]n2)o1)N1CCC(c2cc[nH]n2)CC1 | -7% | 1.07
CC(C)(C)c1noc(Cn2ccnc2[C@@H](O)c2ccco2)n1 | 15% | -1.85
CC(C)(C)[C@H](CCO)NC(=O)c1cc(F)cc(F)c1 | -14% | 1.63
COC(=O)C[C@@H](c1cnn(C)c1C)c1c(C)[nH][nH]c1=O | 7% | -0.86
CC[C@H](C)n1nnc2cc(S(=O)(=O)N3CCC(C(=O)NCc4cccc(F)c4)CC3)ccc21 | -18% | 2.55
O=C(CN1CCOCC1)Nc1cccc2nonc12 | -13% | 1.38
COCCN1C[C@H](O)C(C)(C)COCCC[C@H]2CN(Cc3ccc(S(C)(=O)=O)cc3)CC[C@H]2CC1=O | -12% | 1.5
Cc1csc(C2(NC(=O)[C@@H]3CCC(=O)N3)CCCCCC2)n1 | -8% | 1.2
C[C@@H](c1ccncc1)N(C)Cc1ccc2cccc(F)c2n1 | -15% | 1.5
CN1CCN(CC2(CNc3nnc(C4CCC4)o3)CC2)CC1 | 6% | -1.02
CC(=O)Nc1ccc(Oc2nnc(Oc3ccc(NC(C)=O)cc3)c3ccccc23)cc1 | -8% | 0.83

— ChEMBL document CHEMBL4888484, “Replenishing the malaria drug discovery pipeline: Screening and hit evaluation of the MMV Hit Generation Library 1 (HGL1) against asexual blood stage Plasmodium falciparum ,using a nano luciferase reporter read-out” (2022)
